# The list shows a part of the results.
# B1: SialidaseA (Arthrobacter ureafaciens) (protein)
# chain: MRSNSTSAPSLVRRAATGVLTCAVSIGLLAGLGLPAQAAPTPPNSPTLPPGSFSETNLAADRTAANFFYRIPALTYLGNDVVLAAWDGRPGSAADAPNPNSIVQRRSTDGGKTWGPVQVIAAGHVADASGPRYGYSDPSYIYDAEANKVFAFFVYSKDQGFGGSQFGNDDADRNVISSAVIESSDAGVTWSQPRLITSVTKPGTSKTNPAAGDVRSNFASSGEGIQLKYGPHKGRLIQQYAGDVRQADGSNKIQAYSVYSDDHGVTWHKGANVGDRMDENKTVELSDGRVLLNSRDNANRGYRKVAVSTDGGATYGPVSQDTELPDPANNGAIARMFPNAAQGSADAKKLIFTNANSKTGRENVSARVSCDDGETWPGVRTIRSGFSAYSTVTRLADGKFGVLYEGNYTDNMPFATFDDAWLNYVCAPLAVPAVNIAPSATQEVPVTVTNQEATTLSGATATVYTPSGWSATTVPVPDVAPGASVTVTVALTAPADASGPRSLNAAFTTADGRVSQFTFTATTPVAPQVGLTITGSAPARDVAANPYQAGDVLGYTLNVKSTANVAANSVPLTGTFDSGFLPPAAPNCRYNNLAAGASYNCTTAKHTITAADMERGYFVPEATFSITSTTTPSLTKTVQFTGAAVALRDGLISADISGARTDVGRDLATRPYAAGELVPYAFTVKNTSPFVEQVVPTAGNFSPFLPAGAGNCRYLSLPAGQSYECATPRHAVTAEEVEQGFFVPDTTWEVSAAGQSTRTYRINGGEVDLLVRDAALSATVVAEWKDADGDRFASAGDPVTFTYTVGNAGNVALTGLEAPDAGISLPFLAPGDTATATREHVLTAADVAGGSLAASAFEATARNGSKEVTATAEGQPLELKVQPAQPSKEPELTVQDLEDQTPPFDLGTAFKYRTGQKVSLAGLEYGQWYYVYLNKTGYRLGWMFPTTGDTVEFILPPEVRNGRDDVVVLDKDGRRVSFDRLQVTPKGEKI
# Tests used:
# Test in all cases: glycan array binding signal (z-score within array); higher = stronger binding
# Conditions in all cases: glycan notation: IUPAC condensed, linker removed
# [1] = biological target: Man(a1-2)Man(a1-3)[Man(a1-2)Man(a1-6)]Man(a1-6)[Man(a1-2)Man(a1-2)Man(a1-3)]Man
# Method in brief: (§1)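 Glycan array binding is given as a within-array Z-score, which can be read as non-binding when negative. The arrays, 3228 of them, came from the Consortium for Functional Glycomics database and were retained only where the protein sequence was available. Z-scores were averaged across arrays of the same protein sequence at different concentrations or buffers and across linkers.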
# [2] = biological target: Man(a1-2)Man(a1-3)[Man(a1-2)Man(a1-6)]Man(a1-6)[Man(a1-2)Man(a1-2)Man(a1-3)]Man(b1-4)GlcNAc(b1-4)GlcNAc
# Method in brief: as §1
# [3] = biological target: Man(a1-2)Man(a1-3)[Man(a1-6)]Man(a1-6)[Man(a1-2)Man(a1-3)]Man(b1-4)GlcNAc(b1-4)GlcNAc
# Method in brief: as §1
# [4] = biological target: Man(a1-2)Man(a1-6)[Man(a1-3)]Man(a1-6)[Man(a1-2)Man(a1-2)Man(a1-3)]Man
# Method in brief: as §1
# [5] = biological target: Man(a1-2)Man(a1-6)[Man(a1-3)]Man(a1-6)[Man(a1-2)Man(a1-2)Man(a1-3)]Man(b1-4)GlcNAc(b1-4)GlcNAc
# Method in brief: as §1
# Man(a1-3)[Man(a1-6)]Man = biological target: Man(a1-3)[Man(a1-6)]Man
# Method in brief: as §1
# [6] = biological target: Man(a1-3)[Man(a1-6)]Man(a1-6)[Man(a1-2)Man(a1-3)]Man(b1-4)GlcNAc(b1-4)GlcNAc
# Method in brief: as §1
# [7] = biological target: Man(a1-3)[Man(a1-6)]Man(a1-6)[Man(a1-3)]Man
# Method in brief: as §1
# [8] = biological target: Man(a1-3)[Man(a1-6)]Man(a1-6)[Man(a1-3)]Man(b1-4)GlcNAc(b1-4)GlcNAc
# Method in brief: as §1
# [9] = biological target: Man(a1-3)[Man(a1-6)]Man(b1-4)GlcNAc(b1-4)GlcNAc
# Method in brief: as §1
# [10] = biological target: Man(a1-3)[Man(a1-6)]Man(b1-4)GlcNAc(b1-4)[Fuc(a1-6)]GlcNAc
# Method in brief: as §1
# Man(a1-6)Man = biological target: Man(a1-6)Man
# Method in brief: as §1
# Man(b1-4)GlcNAc = biological target: Man(b1-4)GlcNAc
# Method in brief: as §1
# MurNAc(b1-4)GlcNAc = biological target: MurNAc(b1-4)GlcNAc
# Method in brief: as §1
# Neu5Ac(a2-3)Gal = biological target: Neu5Ac(a2-3)Gal
# Method in brief: as §1
# [11] = biological target: Neu5Ac(a2-3)Gal(b1-3)GalNAc
# Method in brief: as §1
# [12] = biological target: Neu5Ac(a2-3)Gal(b1-3)GalNAc(b1-3)Gal(a1-4)Gal(b1-4)Glc
# Method in brief: as §1
# [13] = biological target: Neu5Ac(a2-3)Gal(b1-3)GalNAc(b1-4)Gal(b1-4)Glc
# Method in brief: as §1
# [14] = biological target: Neu5Ac(a2-3)Gal(b1-3)GalNAc(b1-4)[Neu5Ac(a2-3)]Gal(b1-4)Glc
# Method in brief: as §1
# [15] = biological target: Neu5Ac(a2-3)Gal(b1-3)GalNAc(b1-4)[Neu5Ac(a2-8)Neu5Ac(a2-3)]Gal(b1-4)Glc
# Method in brief: as §1
# [16] = biological target: Neu5Ac(a2-3)Gal(b1-3)GalNAc6S
# Method in brief: as §1
# [17] = biological target: Neu5Ac(a2-3)Gal(b1-3)GlcNAc
# Method in brief: as §1
# [18] = biological target: Neu5Ac(a2-3)Gal(b1-3)GlcNAc(b1-2)Man
# Method in brief: as §1
# [19] = biological target: Neu5Ac(a2-3)Gal(b1-3)GlcNAc(b1-2)Man(a1-3)[GlcNAc(b1-4)][Neu5Ac(a2-3)Gal(b1-3)GlcNAc(b1-2)Man(a1-6)]Man(b1-4)GlcNAc(b1-4)GlcNAc
# Method in brief: as §1
# [20] = biological target: Neu5Ac(a2-3)Gal(b1-3)GlcNAc(b1-2)Man(a1-3)[Neu5Ac(a2-3)Gal(b1-3)GlcNAc(b1-2)Man(a1-6)]Man(b1-4)GlcNAc(b1-4)GlcNAc
# Method in brief: as §1
# [21] = biological target: Neu5Ac(a2-3)Gal(b1-3)GlcNAc(b1-2)[Neu5Ac(a2-3)Gal(b1-3)GlcNAc(b1-4)]Man(a1-6)[Neu5Ac(a2-3)Gal(b1-3)GlcNAc(b1-2)Man(a1-3)]Man(b1-4)GlcNAc(b1-4)GlcNAc
# Method in brief: as §1
# [22] = biological target: Neu5Ac(a2-3)Gal(b1-3)GlcNAc(b1-3)Gal(b1-3)GlcNAc
# Method in brief: as §1
# [23] = biological target: Neu5Ac(a2-3)Gal(b1-3)GlcNAc(b1-3)Gal(b1-4)GlcNAc
# Method in brief: as §1
# [24] = biological target: Neu5Ac(a2-3)Gal(b1-3)GlcNAc(b1-3)GalNAc
# Method in brief: as §1
# [25] = biological target: Neu5Ac(a2-3)Gal(b1-3)GlcNAc(b1-6)GalNAc
# Method in brief: as §1
binder,measurement,setting,value
B1,glycan array binding signal (z-score),[1],0.656
same,glycan array binding signal (z-score),[2],-0.441
same,glycan array binding signal (z-score),[3],-0.321
same,glycan array binding signal (z-score),[4],-0.478
same,glycan array binding signal (z-score),[5],-0.567
same,glycan array binding signal (z-score),Man(a1-3)[Man(a1-6)]Man,-0.571
same,glycan array binding signal (z-score),[6],-0.172
same,glycan array binding signal (z-score),[7],-0.588
same,glycan array binding signal (z-score),[8],-0.278
same,glycan array binding signal (z-score),[9],-0.377
same,glycan array binding signal (z-score),[10],-0.23
same,glycan array binding signal (z-score),Man(a1-6)Man,-0.662
same,glycan array binding signal (z-score),Man(b1-4)GlcNAc,-0.628
same,glycan array binding signal (z-score),MurNAc(b1-4)GlcNAc,-0.657
same,glycan array binding signal (z-score),Neu5Ac(a2-3)Gal,-0.506
same,glycan array binding signal (z-score),[11],1.29
same,glycan array binding signal (z-score),[12],0.952
same,glycan array binding signal (z-score),[13],-0.932
same,glycan array binding signal (z-score),[14],2.77
same,glycan array binding signal (z-score),[15],-0.764
same,glycan array binding signal (z-score),[16],0.854
same,glycan array binding signal (z-score),[17],1.16
same,glycan array binding signal (z-score),[18],0.572
same,glycan array binding signal (z-score),[19],-0.555
same,glycan array binding signal (z-score),[20],-0.121
same,glycan array binding signal (z-score),[21],1.14
same,glycan array binding signal (z-score),[22],0.542
same,glycan array binding signal (z-score),[23],1.07
same,glycan array binding signal (z-score),[24],-0.321
same,glycan array binding signal (z-score),[25],1.48

# Source: the supplement of paper PMC8728848
